Measured values: the RNAGym collection of RNA variant scans (doi:10.1093/nar/gkz1192)
Read counts are not given, so values of variants with three or more changes are uncertain.

B1: CPEB3 Ribozyme (parent)
chain: UAACAGGGGGCCACAGCAGAAGCGUUCACGUCGCAGCCCCUGUCAGAUUCUGGUGAAUCUGCGAAUUCUGCUGUAUAUCUC

Variants of: B1
Experiment: self-cleavage, relative activity (ratio to wild type); higher = more cleavage; in vitro, sequencing
Method in brief: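 Libraries of CPEB3 self-cleaving ribozyme mutants came from rounds of error-prone PCR and carried barcodes, which DNA sequencing matched to variants. In vitro transcription used T7 RNA polymerase at 37°C for 5 hours, with a further 15 min in DNase I before EDTA stopped the reaction; the ribozymes cleaved during both steps. The RNA was reverse transcribed with template switching and sequenced on Illumina. Relative activity is the cleaved/total read fraction of a variant divided by that of the unmutated ribozyme, averaged over three batches with at least 5 reads.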

Variant	self-cleavage
UAACAGGGGGCCACAGCAGAAGCGUUCACGUCGCAGCCCCUGUCAGAUUCCGGUGAAUCUGCGAAUUCCGCGGUAUAUCUC [U51C U69C U72G]	0.54
UAACAGGGGGCCACAGCAGAAGCGUUCACGUCGCAGCCCCUGUCAGAUUCCGGUGAAUCUGCGAAUUCCGCUGUAUAUCCC [U51C U69C U80C]	0.65
UAACAGGGGGCCACAGCAGAAGCGUUCACGUCGCAGCCCCUGUCAGAUUCCGGUGAAUCUGCGAAUUCUGCUGUAUACGCC [U51C U78C C79G U80C]	1.22
UAACAGGGGGCCACAGCAGAAGCGUUCACGUCGCAGCCCCUGUCAGAUUCGGAUGAAUCUGCGAAUUCCGCUGUGUAUCUC [U51G G53A U69C A75G]	0.59
UAACAGGGGGCCACAGCAGAAGCGUUCACGUCGCAGCCCCUGUCAGAUUCGGGUGAAUCUGCGAAUCCUGCUGGAUAUCUC [U51G U67C U74G]	0.39
UAACAGGGGGCCACAGCAGAAGCGUUCACGUCGCAGCCCCUGUCAGAUUCUAGUGAAUCUCCAAAUUCUGCUGUAUAUCUC [G52A G61C G63A]	0.46
UAACAGGGGGCCACAGCAGAAGCGUUCACGUCGCAGCCCCUGUCAGAUUCUAGUGAAUCUGCGAAUCCUGCUGUAAAUCUC [G52A U67C U76A]	0.48
UAACAGGGGGCCACAGCAGAAGCGUUCACGUCGCAGCCCCUGUCAGAUUCUAGUGAAUCUGCGAAUUCAGCUGUAUAUCAC [G52A U69A U80A]	0.98
UAACAGGGGGCCACAGCAGAAGCGUUCACGUCGCAGCCCCUGUCAGAUUCUCGUGAAUCUGCGAAUUCUACUGUAUGUCUC [G52C G70A A77G]	0.43
UAACAGGGGGCCACAGCAGAAGCGUUCACGUCGCAGCCCCUGUCAGAUUCUCGAGAAUCUGCGUAUUCCGCUGUAUAUCUC [G52C U54A A64U U69C]	0.43
UAACAGGGGGCCACAGCAGAAGCGUUCACGUCGCAGCCCCUGUCAGAUUCUUGUCACUCUGCGAAUUCUGCUGUAUAUCUC [G52U G55C A57C]	0.64
UAACAGGGGGCCACAGCAGAAGCGUUCACGUCGCAGCCCCUGUCAGAUUCUUGUGAAUCUGCGAACCCUGCUGUAUAUCUC [G52U U66C U67C]	0.18
UAACAGGGGGCCACAGCAGAAGCGUUCACGUCGCAGCCCCUGUCAGAUUCUUGUGAAUCUGCGAAUUCCACUGUAUAUCUC [G52U U69C G70A]	0.26
UAACAGGGGGCCACAGCAGAAGCGUUCACGUCGCAGCCCCUGUCAGAUUCUGAUGUAUCAGCGGUUUCUGCUGUAUAUCUC [G53A A56U U60A A64G A65U]	0.19
UAACAGGGGGCCACAGCAGAAGCGUUCACGUCGCAGCCCCUGUCAGAUUCUGAUGAGUCUGCGAAUUCUGCAGUAUAUCUC [G53A A57G U72A]	0.82
UAACAGGGGGCCACAGCAGAAGCGUUCACGUCGCAGCCCCUGUCAGAUUCUGAUGAAUCUGCGGGUUCUGCAGUAUAUCUC [G53A A64G A65G U72A]	0.21
UAACAGGGGGCCACAGCAGAAGCGUUCACGUCGCAGCCCCUGUCAGAUUCUGAUGAAUCUGCGGAUCCUGCUGUAUAUCUC [G53A A64G U67C]	0.21

Variant	self-cleavage
UAACAGGGGGCCACAGCAGAAGCGUUCACGUCGCAGCCCCUGUCAGAUUCUGAUGAAUCUGCGAGUUCUGCUGUAUAACUC [G53A A65G U78A]	0.74
UAACAGGGGGCCACAGCAGAAGCGUUCACGUCGCAGCCCCUGUCAGAUUCUGAUGAAUCUGCGAAUUCAGCCGUAUAUCUC [G53A U69A U72C]	0.64
UAACAGGGGGCCACAGCAGAAGCGUUCACGUCGCAGCCCCUGUCAGAUUCUGAUGAAUCUGCGAAUUCUGCCGUAUACCUC [G53A U72C U78C]	1.24
UAACAGGGGGCCACAGCAGAAGCGUUCACGUCGCAGCCCCUGUCAGAUUCUGCUGAAUCUGCGGAUUCUGCUGUAUAUCAC [G53C A64G U80A]	1.14
UAACAGGGGGCCACAGCAGAAGCGUUCACGUCGCAGCCCCUGUCAGAUUCUGUUGCAUCUGCGAGUUCUGCUGUAUAUCUC [G53U A56C A65G]	0.26
UAACAGGGGGCCACAGCAGAAGCGUUCACGUCGCAGCCCCUGUCAGAUUCUGUUGAAUCUGCGGAUACUGCUGUAUAUCUC [G53U A64G U67A]	0.33
UAACAGGGGGCCACAGCAGAAGCGUUCACGUCGCAGCCCCUGUCAGAUUCUGUUGAAUCUGCGGAUUCUGCUGUAAAUCUC [G53U A64G U76A]	1.15
UAACAGGGGGCCACAGCAGAAGCGUUCACGUCGCAGCCCCUGUCAGAUUCUGUUGAACGUGCGAAUUCCGCUGUAUAUCUC [G53U U58C C59G U69C]	0.16
UAACAGGGGGCCACAGCAGAAGCGUUCACGUCGCAGCCCCUGUCAGAUUCUGUUGAACCUGCGAAUUCCGCUGUAUAUCUC [G53U U58C U69C]	0.3
UAACAGGGGGCCACAGCAGAAGCGUUCACGUCGCAGCCCCUGUCAGAUUCUGGAGGAUCUGCGAAUUCUGCCGUAUACCUC [U54A A56G U72C U78C]	0.95
UAACAGGGGGCCACAGCAGAAGCGUUCACGUCGCAGCCCCUGUCAGAUUCUGGAGAAUCUGCGGAUUCUGCUGUAUACCUC [U54A A64G U78C]	0.78
UAACAGGGGGCCACAGCAGAAGCGUUCACGUCGCAGCCCCUGUCAGAUUCUGGAGAAUCUGCGUAUUCUGCUGUAUGUCUC [U54A A64U A77G]	0.3
UAACAGGGGGCCACAGCAGAAGCGUUCACGUCGCAGCCCCUGUCAGAUUCUGGAGAAUCUGCGUAUUCUGCAGUUUAUCUC [U54A A64U U72A A75U]	0.57
UAACAGGGGGCCACAGCAGAAGCGUUCACGUCGCAGCCCCUGUCAGAUUCUGGAGAAUCUGCGAAUUCUGCUGUUUACCUC [U54A A75U U78C]	1.14
UAACAGGGGGCCACAGCAGAAGCGUUCACGUCGCAGCCCCUGUCAGAUUCUGGAGAACCUGCGUAUACUGCUGUAUAUCUC [U54A U58C A64U U67A]	0.37
UAACAGGGGGCCACAGCAGAAGCGUUCACGUCGCAGCCCCUGUCAGAUUCUGGAGAACCUGCGAAUUCUGCUGUUUAUCUC [U54A U58C A75U]	0.98
UAACAGGGGGCCACAGCAGAAGCGUUCACGUCGCAGCCCCUGUCAGAUUCUGGCGGAUCUGCGGAUUCUGCUGUAUAUCUC [U54C A56G A64G]	0.49
